Some of the results follow. The energies were worked out here from pooled read counts, against the library average; single values are noisy.
Biological target: T1, Pho4 (S. cerevisiae) (UniProt P07270)
T1 sequence: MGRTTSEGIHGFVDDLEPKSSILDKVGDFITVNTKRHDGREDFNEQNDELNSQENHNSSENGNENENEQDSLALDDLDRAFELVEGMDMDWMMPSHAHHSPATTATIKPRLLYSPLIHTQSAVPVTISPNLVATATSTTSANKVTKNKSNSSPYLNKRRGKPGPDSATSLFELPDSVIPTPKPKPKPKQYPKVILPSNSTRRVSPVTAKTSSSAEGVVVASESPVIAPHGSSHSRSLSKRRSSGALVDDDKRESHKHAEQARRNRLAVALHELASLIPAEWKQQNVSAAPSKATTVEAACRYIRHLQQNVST
Test: relative binding free energy (BET-seq); higher = weaker binding
Conditions: reference: library average

| Sequence | relative binding free energy [kJ/mol] |
| --- | --- |
| TCGCGCACGTGAGGGG | 0.126 |
| AATACCACGTGGTGGT | -0.502 |
| TCACTCACGTGGGGTG | 0.293 |
| TGCGTCACGTGTGGGT | 0.126 |
| CTTTTCACGTGCGAGT | 0.795 |
| GAAAACACGTGGTTTG | -0.335 |
| TAATACACGTGGTTGA | -0.0837 |
| TGTTTCACGTGCAATG | 1.17 |
| ATTAGCACGTGAGCGT | -0.0837 |
| GTATGCACGTGGCATA | 0 |
| TGTTGCACGTGTAAAA | 0.544 |
| TAAAGCACGTGTGTGC | -0.544 |
| AAGAGCACGTGAGGCG | 0.377 |
| TAATGCACGTGAGTAC | 1.21 |
| GTTTTCACGTGATTGC | 1.3 |
| TAGGCCACGTGGGATA | -0.544 |
| CTTGTCACGTGTAGTT | 0.293 |
| TGTCGCACGTGGGGGT | -1.05 |
| TGGTTCACGTGCAGAT | 1 |
| TTCATCACGTGTTGGG | 0.544 |
| TCTCGCACGTGTTATG | 0 |
| GTATGCACGTGGTGGT | 0.167 |
| TACGGCACGTGGTTTT | -0.126 |

| Sequence | relative binding free energy [kJ/mol] |
| --- | --- |
| GCGGGCACGTGGATAT | -0.0418 |
| GTGACCACGTGTGGTA | -0.126 |
| GCGTTCACGTGGCGAG | 1.17 |
| TAGATCACGTGTTGGG | 0.753 |
| ACAGGCACGTGTGGTG | -1.05 |
| AAGGGCACGTGGTCTG | -1.38 |
| ATTTTCACGTGAGATT | 1.76 |
| ATATACACGTGGGTCT | -0.0418 |
| TTCGGCACGTGCTGTT | -0.209 |
| GTTTTCACGTGCAGGA | 1.09 |
| GTGGACACGTGCGGAG | -0.167 |
| GGGTCCACGTGTTTAG | 0.628 |
| TATAGCACGTGAATTG | 0.251 |
| AATGTCACGTGTTGCG | -0.0418 |
| AGTGGCACGTGAAGTG | 1.3 |
| GCTTTCACGTGGGTGG | 0.502 |
| TTTCGCACGTGTACGG | 0.418 |
| TGTCGCACGTGGATGT | -0.377 |
| CATTGCACGTGCTGGT | -0.0837 |
| GAATTCACGTGCGTTG | 1.05 |
| TTAGGCACGTGTGAGC | -0.335 |
| AGCTGCACGTGTGTGT | -0.544 |
| TAAGACACGTGGTAGT | -0.962 |

| Sequence | relative binding free energy [kJ/mol] |
| --- | --- |
| GTTTGCACGTGCTAAT | 0.0418 |
| ATAGTCACGTGGTTTT | 0 |
| CTCGGCACGTGGGCGA | -0.209 |
| GGTGGCACGTGGTAAC | -0.46 |
| GGTGACACGTGACAGG | 0.167 |
| GGTATCACGTGGAGAA | 1.17 |
| TAGACCACGTGGGTTT | -0.209 |
| GTGTGCACGTGAAGTT | 1.21 |
| TGGTGCACGTGCGCTG | -0.293 |
| TATGTCACGTGGAAGA | 0.544 |
| GGTGTCACGTGAATTA | 1.97 |
| CGTTTCACGTGTGGAA | 1.17 |
| TGAAGCACGTGTTAAT | 0.711 |
| TTTAACACGTGTTGCG | 0.0837 |
| ATAGTCACGTGCGTAG | 0.418 |
| ATGATCACGTGTGATG | 1.3 |
| AGTATCACGTGAGTCT | 1.38 |
| AGTTGCACGTGTAATA | 0.377 |
| CTCTTCACGTGGTGGT | 0.92 |
| TTTTTCACGTGACGGT | 1.42 |
| TTAAACACGTGTGGTT | -0.126 |
| TAGATCACGTGCGTTG | -0.0837 |
| TGGGTCACGTGCCGGC | 0.0837 |

| Sequence | relative binding free energy [kJ/mol] |
| --- | --- |
| GGTATCACGTGTGATT | 0.628 |
| GATTGCACGTGTTCTT | 0.0418 |
| TAAGTCACGTGCGTGA | 0.0837 |
| TTAGGCACGTGTGGGC | -0.126 |
| GGGCACACGTGGGAAA | 0.586 |
| GGGTCCACGTGGTTAT | 0.209 |
| ATTTACACGTGAATTT | 1.17 |
| GGTTTCACGTGTTGTT | 1.13 |
| GCAGGCACGTGTAAAT | 0.753 |
| GTCCTCACGTGGTGGG | 0.293 |
| AAAGTCACGTGTATTG | 0.335 |
| TGTAGCACGTGGACAT | -0.377 |
| GTGGGCACGTGTATGA | -0.0418 |
| ATAGTCACGTGTGAGA | 0.837 |
| ATAGCCACGTGGGTAA | -0.293 |
| TTCCGCACGTGCTGGG | -0.126 |
| GGGTTCACGTGTCTTG | 1.59 |
| TGGGCCACGTGTGGGC | 0.126 |
| CAGGTCACGTGGGGGA | -0.335 |
| GCTGTCACGTGTTGTA | 0.502 |
| TTAAGCACGTGAATTA | 1.09 |
| TTAAGCACGTGTTAAT | -0.0418 |
| AGTTCCACGTGTGGCG | 0.669 |

| Sequence | relative binding free energy [kJ/mol] |
| --- | --- |
| TTAATCACGTGATCTG | 0.837 |
| TATTGCACGTGTTGCG | 0 |
| ATTGTCACGTGGTTGT | 0.418 |
| CTAGTCACGTGTGGAG | 0.962 |
| GCCTGCACGTGTTGGT | 0.628 |
| GGATACACGTGAGGTT | 1.55 |
| TAGTGCACGTGAGTAA | 0.544 |
| GCGTGCACGTGAGGTG | 0.92 |
| TCGGTCACGTGAAGTA | 1.46 |
| AGGTTCACGTGGGGGC | 0.586 |
| TGTCACACGTGCGGGC | 0.293 |
| GATCGCACGTGTTAGG | 0.377 |
| GCGTGCACGTGTTGGC | 0.46 |
| GATTGCACGTGTTTAA | 0 |
| TCGTACACGTGTGTTA | 0.167 |
| AGGGGCACGTGACTGG | -0.209 |
| TTTTACACGTGGGAGA | 0.335 |
| TGCGACACGTGGTTAT | 0.126 |
| GCTGTCACGTGGTTTG | 0.46 |
| CGTGCCACGTGACGGG | 0.293 |
| AGGTTCACGTGAGTGC | 1.34 |
| ATTATCACGTGTATTC | 0.251 |
| GAATGCACGTGGTGGT | -0.126 |
